Publication PMC4336329 (PLoS ONE, 2015)
About 14,000 (4.5%) of roughly 310,000 compounds showed an effect of 50% or more. The effect is printed as a negative number. Some of the results follow.

What follows are compounds tested against human ether-à-go-go-related gene (hERG) potassium channel (human, UniProt Q12809) (assay: primary screen, population patch clamp on CHO cells stably expressing hERG).
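Also: peak tail current of the secondary pulse compared with the same well before compound.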

Sequence of human ether-à-go-go-related gene (hERG) potassium channel (Q12809 whole entry, looked up): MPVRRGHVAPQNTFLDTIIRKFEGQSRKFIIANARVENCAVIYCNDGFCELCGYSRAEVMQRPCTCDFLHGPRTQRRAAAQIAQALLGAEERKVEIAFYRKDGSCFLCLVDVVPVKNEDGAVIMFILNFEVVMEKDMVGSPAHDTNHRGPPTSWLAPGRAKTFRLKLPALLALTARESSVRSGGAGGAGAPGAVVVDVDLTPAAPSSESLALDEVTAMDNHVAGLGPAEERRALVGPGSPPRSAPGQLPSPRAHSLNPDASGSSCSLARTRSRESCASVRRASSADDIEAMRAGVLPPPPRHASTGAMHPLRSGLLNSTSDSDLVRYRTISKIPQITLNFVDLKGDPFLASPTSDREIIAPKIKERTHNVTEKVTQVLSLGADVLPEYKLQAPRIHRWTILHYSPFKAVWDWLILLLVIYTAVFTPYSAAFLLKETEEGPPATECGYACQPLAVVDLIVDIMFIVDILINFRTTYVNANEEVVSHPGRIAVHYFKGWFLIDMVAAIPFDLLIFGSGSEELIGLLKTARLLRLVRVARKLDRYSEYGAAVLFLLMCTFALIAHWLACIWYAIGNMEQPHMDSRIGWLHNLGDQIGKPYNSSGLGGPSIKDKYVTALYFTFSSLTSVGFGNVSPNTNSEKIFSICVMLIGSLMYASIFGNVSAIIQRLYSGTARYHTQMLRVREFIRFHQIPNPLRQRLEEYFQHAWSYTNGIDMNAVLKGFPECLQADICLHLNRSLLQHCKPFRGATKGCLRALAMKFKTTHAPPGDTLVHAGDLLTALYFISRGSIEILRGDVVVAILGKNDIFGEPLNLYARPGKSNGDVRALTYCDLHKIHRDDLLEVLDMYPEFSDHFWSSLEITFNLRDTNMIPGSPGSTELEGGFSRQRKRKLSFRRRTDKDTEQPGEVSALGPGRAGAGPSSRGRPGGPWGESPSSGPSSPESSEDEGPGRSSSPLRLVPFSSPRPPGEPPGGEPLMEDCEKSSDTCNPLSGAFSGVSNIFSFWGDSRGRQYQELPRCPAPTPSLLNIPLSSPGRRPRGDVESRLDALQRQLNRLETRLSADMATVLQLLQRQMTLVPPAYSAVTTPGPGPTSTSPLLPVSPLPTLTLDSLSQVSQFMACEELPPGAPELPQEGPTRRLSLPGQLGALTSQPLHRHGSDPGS

| SMILES | hERG current change (%, negative = inhibition) at 10uM |
| --- | --- |
| Cc1ccc(S(=O)(=O)N(C)CC(=O)OCC(=O)N2CCCC2=O)cc1 | 4.5% |
| COc1cccc(NC(=O)c2nnn(CC(=O)Nc3cc(C)cc(C)c3)c2N)c1 | 13.5% |
| CCOCC(=O)Nc1nnc(C)s1 | 13% |
| O=C(O)CCCC(=O)N1N=C(c2ccccc2)CC1c1cccs1 (centres unmarked) | -0.778% |
| Cc1ccc(S(=O)(=O)N/N=C\c2ccc(C)o2)cc1 | 3.51% |
| O=C(Cn1c2c(c(=O)n3ncnc13)CCC2)N/N=C/c1ccc(Cl)cc1 | -21.4% |
| CCCCCN(C(=O)CCC(=O)OCC(=O)NCc1cccc(OC)c1)c1c(N)n(CCCC)c(=O)[nH]c1=O | -0.375% |
| CCN1C(=O)c2ccccc2Sc2ccc(C(=O)NCCCN3CCCCC3)cc21 | -44.3% |
| CC(NC(=O)c1ccc(N(C)C)c([N+](=O)[O-])c1)c1ccc(-n2ccnc2)cc1 (centres unmarked) | -62.9% |
| Cc1ccc(Cn2c(C(C)Nc3nc(-c4ccc(Cl)c([N+](=O)[O-])c4)cs3)nc3cc(C(F)(F)F)ccc32)cc1 (centres unmarked) | 5.46% |
| COC(=O)c1cccc(NC(=O)c2cc(OC)c(OC)c(OC)c2Br)c1 | 8.4% |
| Cc1ccnc(NC(=O)c2cc3c(=O)oc4ccc(C)cc4c3s2)c1 | 11.1% |
| COc1ccc(/C=N/n2c(C)cc(C)c(C(N)=O)c2=O)cc1 | 12.2% |
| CC(=O)c1ccc(NC(=O)C2(c3ccccc3)CCOCC2)cc1 | -0.205% |
| CCCOc1ccc(C(=O)NCCc2ccccc2)cc1 | -27.8% |
| COc1ccc(C(CC(=O)N2CCCCC2)c2c(OC)cc(OC)c3ccc(=O)oc23)cc1 (centres unmarked) | 4.39% |
| CCOc1ccc(S(=O)(=O)N(CC(=O)N/N=C/c2ccc(-c3ccc([N+](=O)[O-])cc3)o2)c2ccccc2)cc1 | 0.347% |
| NC(=O)c1ccc(NC(=O)CNCc2ccccc2Cl)cc1 | 8.82% |
| O=C(NCc1ccc2c(c1)OCO2)c1nnc(Cc2ccc(Cl)cc2)o1 | 10.5% |
| COc1cc(/C=C/C(=O)NC(=O)c2ccccc2O)ccc1O | 3.33% |
| CC(/C=N/NC(=O)Cn1cnc2ccccc21)=C\c1ccccc1 | 7.61% |
| Cc1ccc(Cc2nnc(SCC(=O)Nc3ccc(C)cc3C)[nH]c2=O)cc1 | 5.33% |
| COc1ccc2nc(/N=C/c3c(O)n(-c4cccc(Cl)c4)c(=O)[nH]c3=O)sc2c1 | 2.53% |
| CCOc1ccccc1NC(=O)CSc1nc2ccccc2c(=O)n1CC1CCCO1 (centres unmarked) | -68% |
| CCCCC(Sc1nc(N)c(NC(=O)c2ccc(OCC)cc2)c(=O)[nH]1)C(=O)O (centres unmarked) | 10.5% |
| O=C(Cn1nc(-c2ccccc2Cl)ccc1=O)Nc1ccccc1-c1ccccc1 | -22.2% |
| C/C(=N\NC(=O)CNC(=O)c1ccc(Br)cc1)c1ccco1 | 5.38% |

| SMILES | hERG current change (%, negative = inhibition) at 10uM |
| --- | --- |
| Cc1cc(C)n(-c2nnc3n2N=C(c2c[nH]c4ccccc24)CS3)n1 | 2.71% |
| COc1ccc(/C=C2\N=C(SC)N(c3ccccc3OC)C2=O)cc1 | -4.47% |
| CCOc1cc(/C=C2/SC(=S)N(C)C2=O)ccc1Oc1ccc([N+](=O)[O-])cc1[N+](=O)[O-] | 15% |
| Cc1sc(/C=C2\C(=O)ON=C2c2ccccc2)cc1Br | 14.8% |
| CCN(CC)S(=O)(=O)c1cc(Br)c(C)cc1OC | -27.4% |
| O=C(O)c1cn(C2CC2)c2cc(N3CCN(S(=O)(=O)c4ccc5c(c4)OCCO5)CC3)c(F)cc2c1=O | 15.8% |
| O=C(Nc1csc([N+](=O)[O-])c1)Nc1c(Cl)cccc1Cl | 5.87% |
| O=C(NC(=S)Nc1ccc(S(=O)(=O)N2CCOCC2)cc1)c1ccccc1[N+](=O)[O-] | 15.8% |
| CCCCCCc1cc2cc(C(=O)Nc3ccc(OC)cc3)c(=O)oc2cc1O | 5.95% |
| COC(=O)Cc1ccc(NC(=O)c2ccc(Br)o2)cc1 | -4.22% |
| Cc1ccc(N2CC(C(=O)NC3=NCCS3)CC2=O)cc1 (centres unmarked) | 9.51% |
| COc1ccc(C(=O)Nc2ccc(OCC(F)(F)C(F)F)c(C(F)(F)F)c2)cc1OC | 3.72% |
| O=C(N/N=C/c1ccc([N+](=O)[O-])o1)c1ccc(O)cc1 | 8.14% |
| O=C(O)C1CCCN(C(=O)NCc2ccccc2)C1 (centres unmarked) | 11.2% |
| CCC1=Nc2cc(C(=O)NCCCOC)ccc2Sc2ccccc21 | -9.35% |
| COc1cc(S(=O)(=O)N2CCN(c3ccccc3)CC2)ccc1Cl | 19% |
| O=C1CCC(C(=O)NCc2ccc3c(c2)OCO3)N1 (centres unmarked) | 8.37% |
| O=C(Nc1ccc2c(c1)OCCO2)c1cc2sccc2n1Cc1ccccc1 | -0.576% |
| O=C(NCCN1C(=O)S/C(=C\c2ccc(OC(F)F)cc2)C1=O)[C@@H]1CCCN1C(=O)c1cccs1 | -63.5% |
| CCN(CC)C(=O)CSc1nnc(CNc2ccc(F)cc2)o1 | 1.13% |
| Cn1c(SCc2cccc(Br)c2)nnc1-c1ccncc1 | -17.1% |
| S=C(NC1CCCCC1)N1CCc2[nH]c3ccccc3c2C1 | 12.3% |
| Cl.Fc1ccc(CNC2CN3CCC2CC3)cc1 (centres unmarked) | -4.96% |
| CCC1=C(OC(=O)N(CC)CC)N2C(=O)OC(=NCCc3c[nH]c4ccccc34)[C@]2(Cc2ccccc2)[C@H]2C1=CC[C@H]1C(=O)N(CC)C(=O)[C@H]12 | 10.8% |
| NC(N)=NC1=NC(=O)/C(=C/c2ccccc2-n2cccn2)S1 | 19.1% |
| Cn1c2c(c(=O)n(C)c1=O)CN(CC1CCCO1)CN2 (centres unmarked) | 9.87% |
